Measured values published in the RNAGym collection of RNA variant scans (doi:10.7554/elife.90254).
Read counts are not given, so values of variants with three or more changes are uncertain.

B1: LINE1-full (parent)
chain: UACGUAGGUGGUUUUCCCCUGAUAGUGCUAAGGGGGCCUGGAAGUUUGGACUGGGCAGAGCUCAACACAGCGUGGCAAAGUGGCUGUGGCUAGACUGCCUCUCUGGAUUCCUCGUCACUCAGCAGGGCAUCUCUGAGAGAAAUGCC

Variants of: B1
Test: self-cleavage, relative activity (ratio to wild type); higher = more cleavage; in vitro, sequencing; the parent is a self-cleaving ribozyme

Q: Which self-cleavage does the source give for U12A U47C A57U U96C C98U here?
A: The self-cleavage was 0.17.

Q: For U47C U102C A141G, which self-cleavage is on record?
A: The self-cleavage was 1.97.

Q: With A43G A121U A136G A142G as the variant, how does the self-cleavage read?
A: The self-cleavage was 1.11.

Q: Which self-cleavage does the source give for U15C G36A C76U here?
A: The self-cleavage was 1.92.

Q: Which self-cleavage does the source give for U12C U73C A107G here?
A: Its self-cleavage is 1.02.

Q: Which self-cleavage does the source give for A79U C110A U143G here?
A: Its self-cleavage is 1.78.

Q: With G35A A43G G55A C84U U104A as the variant, how does the self-cleavage read?
A: Its self-cleavage is 0.02.

Q: For G35U U52A A124G, which self-cleavage is on record?
A: Its self-cleavage is 1.32.

Q: For C16U A77G U87A A129U, which self-cleavage is on record?
A: Its self-cleavage is 0.06.

Q: With U13C U39C A117U A121G as the variant, how does the self-cleavage read?
A: Its self-cleavage is 1.97.

Q: For U12G U46A U47A U96C A141U, which self-cleavage is on record?
A: The self-cleavage was 0.43.

Q: With A6U G41C A50G U132C as the variant, how does the self-cleavage read?
A: The self-cleavage was 0.66.

Q: Which self-cleavage does the source give for A69G C76U A94G C103U U132C here?
A: The self-cleavage was 0.03.

Q: With A24G C38A A43U A79G as the variant, how does the self-cleavage read?
A: The self-cleavage was 1.14.

Q: With U87A U108C U115C A138U as the variant, how does the self-cleavage read?
A: The self-cleavage was 0.14.

Q: For U20C U73C U115A C120U, which self-cleavage is on record?
A: Its self-cleavage is 2.02.

Q: Which self-cleavage does the source give for A65G A79G U87A C123U A138G here?
A: The self-cleavage was 0.04.

Q: For A22U A78G A117U A136G, which self-cleavage is on record?
A: Its self-cleavage is 1.6.

Q: Which self-cleavage does the source give for A42G A57U U81A A117G U119A U143C here?
A: Its self-cleavage is 0.31.

Q: For U9C U109C U134C, which self-cleavage is on record?
A: The self-cleavage was 0.75.

Q: With A22G A50G A141G as the variant, how does the self-cleavage read?
A: The self-cleavage was 0.77.

Q: With G36U G58A A69G as the variant, how does the self-cleavage read?
A: Its self-cleavage is 0.04.

Q: For G54A A79G U96A, which self-cleavage is on record?
A: The self-cleavage was 0.

Q: Which self-cleavage does the source give for U12A U96A U119C A121U A138G C146U here?
A: Its self-cleavage is 0.05.

Q: With A94G U109C A141G as the variant, how does the self-cleavage read?
A: The self-cleavage was 0.28.

Q: For U15C A43G A64U U109C A121G A141G, which self-cleavage is on record?
A: The self-cleavage was 0.52.

Q: Which self-cleavage does the source give for A31U A79G U85C C145U here?
A: Its self-cleavage is 0.74.

Q: Which self-cleavage does the source give for A2G U26A U46A A79G here?
A: Its self-cleavage is 0.36.

Q: Which self-cleavage does the source give for U29C G72U A79G G97A here?
A: Its self-cleavage is 0.06.

Q: Which self-cleavage does the source give for U20C U23A U132A here?
A: The self-cleavage was 0.69.

Q: With A22G A65G A141G as the variant, how does the self-cleavage read?
A: Its self-cleavage is 0.06.

Q: Which self-cleavage does the source give for U13A G35A U47C U85C U87A here?
A: The self-cleavage was 0.06.

Q: Which self-cleavage does the source give for U15C A59G U91A here?
A: The self-cleavage was 0.09.

Q: With A31U A64U U109C as the variant, how does the self-cleavage read?
A: Its self-cleavage is 0.48.

Q: With A2G G33C U81A A138G A142G as the variant, how does the self-cleavage read?
A: Its self-cleavage is 1.73.

Q: With U47A U85C A129G A136G A141U as the variant, how does the self-cleavage read?
A: Its self-cleavage is 0.

Q: Which self-cleavage does the source give for U112C U132C A141G here?
A: The self-cleavage was 1.73.

Q: With U12C G35A G58A U73C A140U as the variant, how does the self-cleavage read?
A: The self-cleavage was 0.02.

Q: Which self-cleavage does the source give for U1C A42G U52C here?
A: The self-cleavage was 0.57.

Q: For U20C A42G U96C, which self-cleavage is on record?
A: The self-cleavage was 0.18.

Q: With U5A U52C U108A as the variant, how does the self-cleavage read?
A: The self-cleavage was 1.27.

Q: Which self-cleavage does the source give for U62C G89U U96C A142G here?
A: Its self-cleavage is 0.03.

Q: With U14C U29C A50G A138U as the variant, how does the self-cleavage read?
A: The self-cleavage was 0.48.

Q: Which self-cleavage does the source give for C3G A77U A94U here?
A: The self-cleavage was 0.59.

Q: With U13C U29C U91C U96C as the variant, how does the self-cleavage read?
A: Its self-cleavage is 0.77.

Q: Which self-cleavage does the source give for U52A A121G U132A here?
A: The self-cleavage was 2.78.

Q: Which self-cleavage does the source give for U14A A43G A64C here?
A: The self-cleavage was 0.35.

Q: Which self-cleavage does the source give for U20C A69U U73C G97A U109C A129G here?
A: The self-cleavage was 0.06.

Q: Which self-cleavage does the source give for A22U A31G U46A U47A U96A A124G here?
A: Its self-cleavage is 0.1.

Q: With U14C U62C A117G as the variant, how does the self-cleavage read?
A: The self-cleavage was 0.

Q: Which self-cleavage does the source give for U39A A42G A142G here?
A: Its self-cleavage is 1.33.

Q: With A69U U119C C145U as the variant, how does the self-cleavage read?
A: The self-cleavage was 0.04.

Q: For U9C A59G A138U, which self-cleavage is on record?
A: Its self-cleavage is 0.2.

Q: With U1A A50U A59G as the variant, how does the self-cleavage read?
A: The self-cleavage was 0.17.

Q: For U9C U14C U102C U132C, which self-cleavage is on record?
A: Its self-cleavage is 0.54.

Q: With A24G U62C U96C as the variant, how does the self-cleavage read?
A: Its self-cleavage is 0.

Q: For U12C A57G U91C U112C G114A U143C, which self-cleavage is on record?
A: The self-cleavage was 0.38.

Q: For U26A U52A A59G A65G G70C, which self-cleavage is on record?
A: The self-cleavage was 0.04.

Q: Which self-cleavage does the source give for U13C C28U U29A here?
A: The self-cleavage was 1.41.

Q: With C84A U102C G114A as the variant, how does the self-cleavage read?
A: The self-cleavage was 0.09.

Q: Which self-cleavage does the source give for G74U A77U G86A A124G U132C A138G here?
A: Its self-cleavage is 0.06.

Q: For U23A A64G U85A U115C, which self-cleavage is on record?
A: The self-cleavage was 0.12.

Q: For U13C C71U A121G, which self-cleavage is on record?
A: The self-cleavage was 0.75.

Q: With C16U U20C A42G A43G U102A A140G U143C as the variant, how does the self-cleavage read?
A: Its self-cleavage is 1.31.

Q: Which self-cleavage does the source give for A6U U62C U91C U109A here?
A: The self-cleavage was 0.14.

Q: Which self-cleavage does the source give for U20C A78G U102C C128U A136G here?
A: Its self-cleavage is 2.13.

Q: Which self-cleavage does the source give for U14C U85C A140C here?
A: The self-cleavage was 0.35.

Q: For A6U U9C A121G, which self-cleavage is on record?
A: The self-cleavage was 0.79.

Q: For A30U C99A A107G, which self-cleavage is on record?
A: The self-cleavage was 1.05.

Q: With A2G U13C G89A as the variant, how does the self-cleavage read?
A: Its self-cleavage is 0.32.

Q: Which self-cleavage does the source give for G53A U130C U134C here?
A: Its self-cleavage is 0.93.

Q: For U29C A57G C84U, which self-cleavage is on record?
A: The self-cleavage was 0.05.

Q: Which self-cleavage does the source give for U9G U26C U47A U87A U104C here?
A: Its self-cleavage is 0.79.

Q: For U14C U20C A59G, which self-cleavage is on record?
A: The self-cleavage was 0.26.

Q: Which self-cleavage does the source give for U29A U109C U130A here?
A: The self-cleavage was 1.67.

Q: Which self-cleavage does the source give for A77G U109C A140G here?
A: The self-cleavage was 1.06.

Q: Which self-cleavage does the source give for A43G A65U U108C A140G here?
A: Its self-cleavage is 0.

Q: For U12G U102C C123U, which self-cleavage is on record?
A: The self-cleavage was 1.45.

Q: For A31G A77U U115A, which self-cleavage is on record?
A: The self-cleavage was 2.01.

Q: With U15C A78G A142G as the variant, how does the self-cleavage read?
A: The self-cleavage was 1.01.

Q: Which self-cleavage does the source give for A24G U26C A94G C95U here?
A: Its self-cleavage is 0.

Q: For U12C A42G A50G, which self-cleavage is on record?
A: The self-cleavage was 0.66.

Q: For U46C U115C C145U, which self-cleavage is on record?
A: Its self-cleavage is 1.84.

Q: With A67G U104C G126U as the variant, how does the self-cleavage read?
A: The self-cleavage was 0.
